Assay results published in patent US8637090B2, “Gallium formulation for the treatment and prevention of infectious diseases” (Aridis Pharmaceuticals, priority 2009, dated 2014).
Where two headings read alike, the source gives them in different places. Marks after values point to notes of the source that are not given here.

Test system: mucoid and non-mucoid strains of P. aeruginosa
Assay: Minimum inhibitory concentration in iron-starved BM-2 broth
Format: cell-based
Settings: for MIC: 24 hours

O=[N+]([O-])[O-].O=[N+]([O-])[O-].O=[N+]([O-])[O-].[Ga+3] [Gallium, gallium nitrate]
<2 µg/mL: MIC (non-mucoid strain 9HN)
<1 µg/mL: MIC (mucoid strain 20JR) | MIC (mucoid strain 35LK) | MIC (mucoid strain 47JS) | MIC (mucoid strain 62LL) | MIC (mucoid strain 96JC) | MIC (mucoid strain 97JE) | MIC (non-mucoid strain 30IX) | MIC (non-mucoid strain 30JS) | MIC (non-mucoid strain 38LL) | MIC (non-mucoid strain 39IV) | MIC (non-mucoid strain 46IV) | MIC (non-mucoid strain 55HY)

NC[C@H]1O[C@H](O[C@H]2[C@H](O)[C@@H](O[C@H]3O[C@H](CO)[C@@H](O)[C@H](N)[C@H]3O)[C@H](N)C[C@@H]2N)[C@H](N)C[C@@H]1O [Tobramycin]
(S): susceptibility class beside MIC (mucoid strain 20JR) | susceptibility class beside MIC (mucoid strain 62LL) | susceptibility class beside MIC (non-mucoid strain 30JS) | susceptibility class beside MIC (non-mucoid strain 39IV)
(I): susceptibility class beside MIC (mucoid strain 35LK)
8 µg/mL: MIC (Pseudomonas aeruginosa, 24 h, mucoid strain 35LK, read-out: MIC)
32 µg/mL: MIC (Pseudomonas aeruginosa, 24 h, mucoid strain 47JS, read-out: MIC)
(R): susceptibility class beside MIC (mucoid strain 41JQ) | susceptibility class beside MIC (mucoid strain 47JS) | susceptibility class beside MIC (mucoid strain 97JE) | susceptibility class beside MIC (non-mucoid strain 9HN) | susceptibility class beside MIC (non-mucoid strain 30IX) | susceptibility class beside MIC (non-mucoid strain 46IV) | susceptibility class beside MIC (non-mucoid strain 55HY)
64 µg/mL: MIC (Pseudomonas aeruginosa, 24 h, non-mucoid strain 46IV, read-out: MIC)
16 µg/mL: MIC (Pseudomonas aeruginosa, 24 h, mucoid strain 96JC, read-out: MIC) | MIC (Pseudomonas aeruginosa, 24 h, non-mucoid strain 30IX, read-out: MIC) | MIC (Pseudomonas aeruginosa, 24 h, non-mucoid strain 38LL, read-out: MIC)
1 µg/mL: MIC (Pseudomonas aeruginosa, 24 h, mucoid strain 62LL, read-out: MIC) | MIC (Pseudomonas aeruginosa, 24 h, non-mucoid strain 30JS, read-out: MIC)
(R)*: susceptibility class beside MIC (mucoid strain 96JC)
4 µg/mL: MIC (Pseudomonas aeruginosa, 24 h, mucoid strain 20JR, read-out: MIC) | MIC (Pseudomonas aeruginosa, 24 h, non-mucoid strain 39IV, read-out: MIC)
